{"source": "the supplement of paper PMC12217912", "parents": {"B1": {"name": "TEV protease; numbered along this chain (parent)", "chain": "MGESLFKGPRDYNPISSSICHLTNESDGHTTSLYGIGFGPFIITNKHLFRRNNGTLVVQSLHGVFKVKDTTTLQQHLVDGRDMIIIRMPKDFPPFPQKLKFREPQREERICLVTTNFQTKSMSSMVSDTSCTFPSGDGIFWKHWIQTKDGQCGSPLVSTRDGFIVGIHSASNFTNTNNYFTSVPKNFMELLTNQEAQQWVSGWRLNADSVLWGGHKVFMVKPEEPFQPVKEATQL"}}, "note": "This is one part of the list. The full chains were built here from the parent and the listed change. Inactive controls read about 0.05.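 Further: Bxb1 expression induced with 0.2% (w/v) L-rhamnose at OD600 near 0.5, cultures sampled hourly, flipped fraction per protease–substrate barcode pair counted by paired-end Illumina sequencing.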", "data": [{"variants_of": "B1", "assay": "raw area under fraction-flipped curve 0-4 h after induction (AUC4h, not background-subtracted), DNA-recorder readout of cleavage of the substrate (dimensionless); higher = more cleavage of the substrate by the protease variant", "details": "temperature: 34 °C; time window: 0-4 h after rhamnose induction", "method": "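In vivo DNA recorder in E. coli TOP10(DE3) ΔrhaA at 34 °C. Each TEVp single-site mutant (parent TEVp 0) is paired with a single-site variant of the 7-mer TEVs (canonical ENLYFQ|S). The substrate sits between flexible linkers in a Bxb1-sfGFP-TEVs-SsrA fusion, so cleavage stabilises Bxb1 and speeds flipping of a recombination array, read by NGS. The value is the raw area under the fraction-flipped curve over 0-4 h after rhamnose induction (AUC4h), with ≥20 reads per time point. It is not background-subtracted; inactive controls average about 0.047.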", "values": [{"variant": "L77R", "area with substrate ENLYEQS": 0.0598, "area with substrate ENLYHQS": 0.0801, "area with substrate ENLYKQS": 0.0461, "area with substrate ENLYNQS": 0.0586, "area with substrate ENLYQQS": 0.0517, "area with substrate ENLYRQS": 0.0653, "area with substrate ENLYSQS": 0.0677, "area with substrate ENLYTQS": 0.0744, "area with substrate ENLYVQS": 0.0776, "area with substrate ENLYWQS": 0.0713}, {"variant": "G80L", "area with substrate ENLYEQS": 0.0888, "area with substrate ENLYGQS": 0.0704, "area with substrate ENLYHQS": 0.0758, "area with substrate ENLYIQS": 0.0884, "area with substrate ENLYRQS": 0.0501, "area with substrate ENLYVQS": 0.133, "area with substrate ENLYWQS": 0.0409, "area with substrate ENLYYQS": 0.0747}, {"variant": "M83L", "area with substrate ENLYEQS": 0.162, "area with substrate ENLYHQS": 0.0743, "area with substrate ENLYIQS": 0.133, "area with substrate ENLYKQS": 0.0585, "area with substrate ENLYLQS": 0.0807, "area with substrate ENLYNQS": 0.0656, "area with substrate ENLYRQS": 0.0654, "area with substrate ENLYVQS": 0.153, "area with substrate ENLYYQS": 0.0834}, {"variant": "P89V", "area with substrate ENLYEQS": 0.0445, "area with substrate ENLYGQS": 0.0689, "area with substrate ENLYLQS": 0.034, "area with substrate ENLYMQS": 0.0527, "area with substrate ENLYNQS": 0.0439, "area with substrate ENLYPQS": 0.05, "area with substrate ENLYTQS": 0.0691}, {"variant": "F92K", "area with substrate ENLYEQS": 0.0621, "area with substrate ENLYGQS": 0.0626, "area with substrate ENLYHQS": 0.072, "area with substrate ENLYIQS": 0.107, "area with substrate ENLYKQS": 0.0562, "area with substrate ENLYNQS": 0.0863, "area with substrate ENLYPQS": 0.0695, "area with substrate ENLYSQS": 0.0772, "area with substrate ENLYVQS": 0.102}, {"variant": "F92V", "area with substrate ENLYEQS": 0.0992, "area with substrate ENLYGQS": 0.0754, "area with substrate ENLYRQS": 0.0302, "area with substrate ENLYWQS": 0.0947}, {"variant": "Q97N", "area with substrate ENLYEQS": 0.0702, "area with substrate ENLYIQS": 0.101, "area with substrate ENLYKQS": 0.0828, "area with substrate ENLYPQS": 0.0774, "area with substrate ENLYRQS": 0.0483, "area with substrate ENLYWQS": 0.0735}, {"variant": "Q97R", "area with substrate ENLYEQS": 0.111, "area with substrate ENLYRQS": 0.0362, "area with substrate ENLYSQS": 0.0531}, {"variant": "K100Q", "area with substrate ENLYEQS": 0.059, "area with substrate ENLYHQS": 0.0724, "area with substrate ENLYKQS": 0.0735, "area with substrate ENLYMQS": 0.081, "area with substrate ENLYNQS": 0.0864, "area with substrate ENLYQQS": 0.0746, "area with substrate ENLYRQS": 0.0633, "area with substrate ENLYSQS": 0.0668, "area with substrate ENLYTQS": 0.0861, "area with substrate ENLYVQS": 0.109, "area with substrate ENLYWQS": 0.0905}, {"variant": "F101H", "area with substrate ENLYEQS": 0.0489, "area with substrate ENLYLQS": 0.0402, "area with substrate ENLYMQS": 0.0599, "area with substrate ENLYNQS": 0.0384, "area with substrate ENLYPQS": 0.035, "area with substrate ENLYTQS": 0.0721, "area with substrate ENLYVQS": 0.0469}, {"variant": "V113K", "area with substrate ENLYEQS": 0.0564, "area with substrate ENLYHQS": 0.0656, "area with substrate ENLYIQS": 0.0719, "area with substrate ENLYKQS": 0.0632, "area with substrate ENLYMQS": 0.0708, "area with substrate ENLYNQS": 0.0606, "area with substrate ENLYPQS": 0.082, "area with substrate ENLYQQS": 0.0963, "area with substrate ENLYRQS": 0.0783, "area with substrate ENLYSQS": 0.0502, "area with substrate ENLYTQS": 0.0634, "area with substrate ENLYVQS": 0.0917, "area with substrate ENLYWQS": 0.0502}, {"variant": "T114N", "area with substrate ENLYEQS": 0.0649, "area with substrate ENLYLQS": 0.102, "area with substrate ENLYMQS": 0.058, "area with substrate ENLYNQS": 0.0721, "area with substrate ENLYPQS": 0.0864, "area with substrate ENLYVQS": 0.126, "area with substrate ENLYYQS": 0.0797}, {"variant": "T115K", "area with substrate ENLYEQS": 0.074, "area with substrate ENLYGQS": 0.061, "area with substrate ENLYHQS": 0.0675, "area with substrate ENLYIQS": 0.133, "area with substrate ENLYLQS": 0.0808, "area with substrate ENLYMQS": 0.0864, "area with substrate ENLYPQS": 0.0681, "area with substrate ENLYQQS": 0.0697, "area with substrate ENLYSQS": 0.0854, "area with substrate ENLYVQS": 0.142, "area with substrate ENLYWQS": 0.0739, "area with substrate ENLYYQS": 0.0489}, {"variant": "T115R", "area with substrate ENLYEQS": 0.0739, "area with substrate ENLYGQS": 0.053, "area with substrate ENLYHQS": 0.058, "area with substrate ENLYKQS": 0.0668, "area with substrate ENLYLQS": 0.0968, "area with substrate ENLYMQS": 0.093, "area with substrate ENLYPQS": 0.0962, "area with substrate ENLYQQS": 0.0696, "area with substrate ENLYSQS": 0.0569, "area with substrate ENLYTQS": 0.0899, "area with substrate ENLYWQS": 0.088}, {"variant": "N116F", "area with substrate ENLYEQS": 0.0422, "area with substrate ENLYHQS": 0.0569, "area with substrate ENLYIQS": 0.127, "area with substrate ENLYKQS": 0.0549, "area with substrate ENLYNQS": 0.0635, "area with substrate ENLYQQS": 0.066, "area with substrate ENLYRQS": 0.0381, "area with substrate ENLYYQS": 0.0516}, {"variant": "N116T", "area with substrate ENLYEQS": 0.0677, "area with substrate ENLYQQS": 0.0422, "area with substrate ENLYTQS": 0.0693, "area with substrate ENLYVQS": 0.0616}, {"variant": "N116V", "area with substrate ENLYEQS": 0.0679, "area with substrate ENLYHQS": 0.0735, "area with substrate ENLYPQS": 0.0939, "area with substrate ENLYQQS": 0.0709, "area with substrate ENLYRQS": 0.0683, "area with substrate ENLYSQS": 0.0709, "area with substrate ENLYVQS": 0.0486}, {"variant": "T119G", "area with substrate ENLYEQS": 0.119, "area with substrate ENLYHQS": 0.0629, "area with substrate ENLYNQS": 0.0638}, {"variant": "T119R", "area with substrate ENLYEQS": 0.0583, "area with substrate ENLYHQS": 0.0605, "area with substrate ENLYPQS": 0.0906, "area with substrate ENLYVQS": 0.0323}, {"variant": "D128T", "area with substrate ENLYEQS": 0.0726, "area with substrate ENLYGQS": 0.0857, "area with substrate ENLYIQS": 0.121, "area with substrate ENLYKQS": 0.0578, "area with substrate ENLYMQS": 0.127, "area with substrate ENLYPQS": 0.0766, "area with substrate ENLYQQS": 0.0916, "area with substrate ENLYRQS": 0.0695}, {"variant": "T129H", "area with substrate ENLYEQS": 0.0687, "area with substrate ENLYHQS": 0.0874, "area with substrate ENLYNQS": 0.0811, "area with substrate ENLYSQS": 0.0914}, {"variant": "C131F", "area with substrate ENLYEQS": 0.0601, "area with substrate ENLYMQS": 0.0953}, {"variant": "C131K", "area with substrate ENLYEQS": 0.0849, "area with substrate ENLYNQS": 0.204, "area with substrate ENLYVQS": 0.135, "area with substrate ENLYWQS": 0.104}]}]}
